According to the supplement of paper PMC3334620:
Over roughly 33,000 sequences, “E-score (-0.5 to 0.5)” has its median near -0.041; the highest 2% begin near 0.37. This is one part of the list.

Target: T1, Ecm22 (UniProt Q05958)
T1 sequence: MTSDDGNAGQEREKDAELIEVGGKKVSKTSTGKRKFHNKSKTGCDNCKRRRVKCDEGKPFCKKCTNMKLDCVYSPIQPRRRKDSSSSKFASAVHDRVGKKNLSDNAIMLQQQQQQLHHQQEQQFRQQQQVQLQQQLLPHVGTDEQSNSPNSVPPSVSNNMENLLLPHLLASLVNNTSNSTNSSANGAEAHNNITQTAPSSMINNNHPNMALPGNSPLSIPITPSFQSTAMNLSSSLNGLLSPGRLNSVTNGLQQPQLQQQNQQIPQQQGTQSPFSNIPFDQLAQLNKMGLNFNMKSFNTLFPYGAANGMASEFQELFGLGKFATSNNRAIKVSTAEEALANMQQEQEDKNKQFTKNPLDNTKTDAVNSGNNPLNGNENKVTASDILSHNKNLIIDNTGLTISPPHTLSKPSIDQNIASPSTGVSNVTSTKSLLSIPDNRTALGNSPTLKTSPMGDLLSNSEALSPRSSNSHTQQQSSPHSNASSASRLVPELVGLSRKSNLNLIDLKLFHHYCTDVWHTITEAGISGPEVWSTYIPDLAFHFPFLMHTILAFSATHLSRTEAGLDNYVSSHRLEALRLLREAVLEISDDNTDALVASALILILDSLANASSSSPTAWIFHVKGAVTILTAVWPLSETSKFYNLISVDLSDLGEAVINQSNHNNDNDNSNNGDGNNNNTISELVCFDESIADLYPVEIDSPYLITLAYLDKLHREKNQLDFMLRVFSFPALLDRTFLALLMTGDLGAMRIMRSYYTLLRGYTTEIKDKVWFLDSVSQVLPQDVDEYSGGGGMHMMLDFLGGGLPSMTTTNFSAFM
Assay: PBM E-score (8-mer binding enrichment) (E-score (-0.5 to 0.5)); higher = stronger / more preferred TF binding; most listed sequences are background and not binding sites
Settings: protein concentration: 200 nM; construct: GST-full length
How it was run: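 Using PURExpress in vitro transcription/translation, GST-tagged yeast transcription factors were made in full-length or DNA-binding-domain form. These were applied at about 100-200 nM to double-stranded universal all-10-mer Agilent arrays, and bound protein was detected with fluorescent anti-GST. Scans were normalised with masliner before the Universal PBM Analysis Suite assigned E-scores to ungapped eight-base words pooled with their reverse complements.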

Sequence	PBM E-score
CCATAAGA	-0.26
AACCTTCC	-0.157
CTGAAATA	-0.247
GCGTCACC	-0.163
CAGAAACG	0.307
ATCGAAAA	0.216
AAAGTTTA	-0.0406
TAATTACA	-0.00471
CGGGCGCA	-0.158
GATGAAAC	0.182
GGCCCCCC	-0.359
GAAATAGA	0.129
GTCTCGCA	0.149
GAAGTACC	0.144
CAGTCGTA	0.418
ATAGCCAC	-0.0595
CCGATGTA	-0.0854
CTTCTACC	-0.192
ACATAGGC	-0.184
AGACCGTC	0.0991
CCTCCGCG	-0.12
AAAGTACC	0.0186
TATAGAAA	0.0324
ACTATAGT	0.0714
AATATCAG	-0.0359

Sequence	PBM E-score
GTTCGCAA	0.284
CTGCGGCC	0.11
CTGCGGGC	-0.163
CTTAAAAC	-0.0116
CGCTAGAC	-0.179
CGCCGGCG	0.0169
CATTAAAG	-0.119
AATCGGGT	0.0669
ACAACACC	-0.0964
TCGTCTCA	0.16
CAGCAAAA	-0.0123
CCCCCGCG	0.141
GCATTCGA	0.081
CTCTTACC	0.081
AAAGCTAC	-0.0131
CACCAACG	-0.0112
CTCCTCTA	-0.225
GACGGAAA	0.133
CTTGCCCA	-0.0883
AGGAAACC	-0.145
AGTCAGTG	-0.119
ACACGGGG	0.0433
AAATTTCG	0.214
AGCAGCCT	-0.102
CCGTAAAA	0.363

Sequence	PBM E-score
GGGTAAAA	-0.029
CCGCGGAC	-0.189
ATTGGCCC	-0.351
CACCAGCG	-0.0738
AACTTAAA	-0.0683
ATACTACA	0.0442
AATGAGAG	-0.231
AACACTGT	-0.0705
AACGTTTC	0.156
CAGTAAAG	-0.221
CGCAGAAA	-0.15
GGTAGTGA	-0.247
GGACGACA	-0.173
ACAAATGC	0.0407
CGGAAACC	-0.0249
AGAAAACA	0.084
AAAGGACA	-0.0993
TAGCCGCA	-0.155
GTCATGGA	-0.2
GTAAAGAC	0.146
ATTAATTC	0.223
AGGGATCA	-0.0911
AGCAACCC	-0.0977
GTGAGAAC	-0.0868
CACTGAGC	-0.21

Sequence	PBM E-score
CCCTCAAA	-0.157
AACGGGGT	0.137
GAAGCGAA	0.207
ACAGACTG	0.0261
TCACACGA	0.256
ATGATTAA	0.16
AGTATCGG	0.0512
ACATTCGT	0.37
GCCCTGAC	-0.342
TACACTGA	0.0566
CACCTATA	0.085
AGACGTCG	0.171
GACGGTAA	0.0065
CAATTAGG	0.109
CTCCAATA	-0.253
ACAAAGGA	-0.0393
ATCGGCCG	-0.0964
CCCTAACA	-0.121
GAACGTAA	0.246
GAGTCTGC	-0.0527
AAGCTGTC	-0.0358
CAGCCTTC	-0.207
AGTCCCGC	-0.245
ACGTTGGA	0.127
GTACTGGA	0.127

Sequence	PBM E-score
AGGCCCTC	-0.105
AACGAGAT	0.438
CCAAGTAC	0.12
GATTCTCA	-0.0618
AGAACGTC	-0.0743
ACCTGCGC	-0.0892
AGGGACGC	-0.0677
AGGCATCG	0.245
GAGGGCCA	-0.123
AAAACGCC	-0.0729
ACCTCTTC	-0.064
GCTATCTA	-0.157
CTGTTGCA	-0.11
AGACTGGC	-0.228
AAAACACT	0.00989
CTTCACTC	0.00687
GGCTTACC	-0.0958
CGTTAAGC	0.4
CGGTATAA	0.161
AAGCCGTG	-0.126
CGGGTTTC	0.0663
AACAGATT	-0.164
CGGTTAAC	0.228
ATATCCTG	0.0485
AGGCCTAC	-0.0913

Sequence	PBM E-score
GACCTCAC	-0.139
CATCGTTA	0.259
TCCCAGCA	-0.0198
ATTCATTA	0.0723
CATTGTGG	-0.185
ATGGGACA	-0.171
GCACGGCC	-0.127
ACATTAGC	0.0206
ACTATGAT	-0.107
ACTTACTC	-0.245
CATTAGAA	0.0854
CGCCCGTA	0.306
CGCCTCGC	0.21
AGCTTGTC	0.00858
ACCACGAG	0.0514
ATTTATAG	-0.0984
AATGATCG	0.18
CCACCCCA	-0.236
ATATTACG	0.296
CGGACGCA	0.046
CATAAGTA	-0.0909
ACACACCT	-0.069
CGACCGCG	0.183
GAAATAAA	0.146
CGCCTGAG	-0.235

Sequence	PBM E-score
CAAACTGA	-0.104
AATGGTAA	-0.0535
GAGACATA	-0.0349
CGATCACA	0.0902
CCCTAATA	-0.194
GCTGTTGA	-0.115
GCATTCAA	0.119
ACGATGAG	0.276
GTGTGCAA	0.0745
CTACAGCA	-0.136
CAATGACA	-0.156
GAGACCAA	-0.0778
AATTAAGA	-0.202
GATCTTCA	-0.0293
ACTAAAAA	0.0191
GCCTTTTA	-0.0709
ACTCCCAA	-0.0881
CTCGAAAG	0.096
CGTTCTAG	0.23
CTAGACAG	-0.189
ACTAGTAC	0.0206
AGGGCAGG	-0.132
CGGGAGGA	0.0611
GATGGCGA	-0.00405
AGAATACA	0.1

Sequence	PBM E-score
GTAGACCA	-0.144
AATATCGT	0.34
TGCTAACA	-0.0691
ATTGGATA	-0.127
CGTTTCAA	0.273
ACCTGGCA	-0.203
ATCTTATG	-0.187
ACTGGGTA	0.0533
AAATTTCA	-0.309
TACCACTA	-0.0337
AAGAAACA	-0.104
ACCAGTAT	0.018
GGGCACCC	-0.189
ATCAAATC	-0.0388
CAGGACAG	-0.0508
AATTGAGA	0.0711
CCGATTAC	0.0999
GAGGCCAA	-0.00374
CATGAAAC	0.0812
ATCTGTAC	0.19
ACGGCGAA	0.225
TACGTCCA	0.00582
GTCGACGA	-0.0129
CCCTGGTA	-0.183
CAACCTAA	-0.0472

Sequence	PBM E-score
GAAAGGCA	-0.124
GGAGTGGA	-0.032
CTGGTGCC	-0.276
ATACCATA	0.134
TGGACGAA	-0.0106
CGTTGAGC	0.0667
ACGCCCGT	0.231
CGACACCG	0.147
AGCTATGG	-0.116
CATTAAGG	-0.121
AAATAACT	0.0821
GGACAGTA	0.0902
CTGCTTTA	-0.0994
CACCTGAA	0.00509
CACCTATC	-0.031
TCGGTTCA	0.194
CTACCGGA	-0.297
CGGACTTC	-0.014
TAAAATAA	-0.0272
GCTCGACC	-0.0173
ACAGTAAT	-0.0196
AACGAGCG	0.459
AAGTCGCG	0.152
ATTCTGCG	0.0686
GATGCTCA	-0.0716

Sequence	PBM E-score
AATCTGGC	-0.277
CGGTTCAG	0.0479
CAGAAATG	-0.165
GGGTGAGA	-0.286
CGACTCTA	0.164
GAGAGATA	-0.047
CCTACAAG	-0.00243
ATGATAGA	-0.0329
ACCAAACA	0.201
CACCACAG	-0.132
CCCTGACC	-0.0114
ACAGCCCC	-0.165
CTCCCGAC	0.155
AAGGCTTC	-0.137
GCGCAGAC	0.0727
CCTTTCAA	-0.203
CCAGAAGA	-0.143
ACGCGATG	0.12
CCATCAGA	-0.12
ACCTCAAC	-0.182
CAAAGAAC	-0.00879
GTATAGAA	0.25
AGGATCAC	-0.171
CCCTCAAG	-0.213
CTCGGTGA	0.101

Sequence	PBM E-score
CTGACGTA	0.132
CTAGCGTC	-0.161
ACTGTATA	0.104
AGTGATCG	0.126
ATGAACGG	0.262
GTTATTCA	0.0462
ATGCACTA	0.128
GCCCTCCC	-0.174
AGCGATAT	0.222
CAAAATAC	0.0309
CCAATTGA	-0.204
ATCACCTG	-0.277
GACCCAAA	0.00812
TAAGTGAA	0.072
CGCCACCC	-0.0601
GGCAAGAC	-0.065
ATTATTGG	-0.184
CCTAGATC	-0.139
GCTAAAGC	-0.0529
ACTCTGCA	-0.0125
CAGATCGG	-0.038
GCGAGCCA	0.0714
CGTACAGC	0.427
ACCATTTC	-0.202
CCCGTAAG	0.115

Sequence	PBM E-score
AACCCATC	-0.0889
ATGGACAT	-0.107
CCTCTTTA	-0.0699
GTAGTGTA	0.0666
GAAGGACA	-0.0935
ACAGCGTA	0.141
ACTCTACG	0.265
GGCCTGAA	-0.278
ACTTGTCG	0.204
CAATCAAC	-0.0638
GGAAACCA	-0.293
AAATGTAA	0.0253
AGTTTCTC	-0.021
CATGTCCA	-0.119
GTCGCGCA	-0.00296
CTACCCAA	-0.126
CTACAAAG	-0.238
AGTGACAG	-0.0965
GATCAGAA	-0.174
ATACCCCG	-0.128
AAGGGCAA	-0.163
CATTCAGC	-0.201
CAGCTATG	-0.0357
CATGGACA	-0.202
GATCGACC	0.0467

Sequence	PBM E-score
ACCCGACC	0.19
CAGTCATA	-0.194
TAGGGCAA	-0.185
CCGCTTGA	-0.116
AACAGGCG	-0.154
GCGTGGCA	-0.124
CAGTGTTA	0.0329
ATAATGTA	0.11
CGGGGAGC	-0.0232
CGCACGAC	0.07
ATTGCACA	-0.0338
GAGAAGTA	-0.0967
CGTCACAG	-0.1
ATAAGCGA	0.332
ACGCACAC	0.104
AGTGTGAT	0.107
CCTGTACC	-0.0544
AATGAGAA	-0.144
CCGACAAC	0.178
AACCGTTC	0.34
AGGTGGGC	-0.228
AGTCGAAT	-0.0942
ACCCACCT	-0.29
CCTGTCAC	-0.0408
ATTTCGTC	0.0861

Sequence	PBM E-score
TATAACAA	-0.0233
GTGAAGTA	0.0181
CCCGAGGG	0.158
ACTGATCG	0.00137
GCCTGGGA	-0.244
AAACTACA	-0.0352
ACGGCAGA	0.226
CATCGAAC	0.0164
AACTTAGT	-0.0291
ATCATGTG	-0.193
CGGGATAC	0.266
GGCTCCCC	-0.294
ATAATGCG	0.163
AGTTCCTA	0.102
CTCCCAGA	-0.111
ACAGAAGC	-0.0614
GCCATGGC	-0.296
ATACGAAC	0.474
GAGGGGGA	-0.0311
